From the BET-seq Pho4 binding data (Le et al. 2018)
The list shows a part of the results. The energies were worked out here from pooled read counts, against the library average; single values are noisy.

target: T1, Pho4 (S. cerevisiae) (UniProt P07270); experiment: relative binding free energy (BET-seq); higher = weaker binding; conditions: reference: library average
T1 sequence: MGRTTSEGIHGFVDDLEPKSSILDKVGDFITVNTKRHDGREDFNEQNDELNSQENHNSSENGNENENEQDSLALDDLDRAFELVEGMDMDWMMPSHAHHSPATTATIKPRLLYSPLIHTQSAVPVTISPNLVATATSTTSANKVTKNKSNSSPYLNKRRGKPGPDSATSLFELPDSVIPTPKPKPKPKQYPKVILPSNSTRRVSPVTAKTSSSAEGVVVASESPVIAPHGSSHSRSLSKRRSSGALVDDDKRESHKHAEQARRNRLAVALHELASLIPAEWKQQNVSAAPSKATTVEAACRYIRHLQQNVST

Sequence | relative binding free energy [kcal/mol]
TAGCACACGTGGTGTG | -0.22
CTGTTCACGTGATGAG | 0.32
TTTATCACGTGGAGGG | 0.2
ATGTACACGTGTATTG | 0.05
AGAGTCACGTGAATAT | 0.32
GAAAGCACGTGGAGGG | -0.07
AGCGACACGTGTGGTG | 0
CGAGTCACGTGGGAAG | -0.06
GCGTTCACGTGGTGAT | 0.35
GTGAACACGTGAAGTT | 0.25
ATTATCACGTGGTGGT | 0.1
ATTTTCACGTGGCTGA | 0.18
CGGGACACGTGGAGGA | 0.09
TGCATCACGTGTGATG | 0.28
GTTGTCACGTGATAGT | 0.33
GGGTGCACGTGCGATT | 0.16
TGTATCACGTGTGCGT | 0.07
TTAATCACGTGGTCAT | 0.15
TGGTGCACGTGAGACT | 0.18
TGTGGCACGTGGCACT | -0.21
GGGTCCACGTGCTTGT | -0.02
GTGTACACGTGTGCAT | 0.02
AGTTTCACGTGCGCTG | 0.23
TGATACACGTGGTTAT | -0.09
TGGTGCACGTGGTATG | -0.11
ATATACACGTGGATTG | 0.08

Sequence | relative binding free energy [kcal/mol]
AGTTACACGTGGGGGG | 0.03
AGTTACACGTGGATAT | 0.07
TATATCACGTGGGTGA | -0.03
TAGTACACGTGAGGGC | 0.33
CGGTGCACGTGATGTT | 0.05
AGTGGCACGTGCGCTA | -0.17
TTATTCACGTGCGAAG | 0.36
CGTGTCACGTGGTGTC | -0.07
TATTTCACGTGATTTT | 0.31
GTCGACACGTGATTTT | 0.38
TTTTCCACGTGTTCGT | -0.04
TTTGGCACGTGCCGGT | -0.17
ATGAGCACGTGTGCGT | -0.09
TGGCGCACGTGAGGGG | 0.16
CTTTTCACGTGTGATT | 0.2
TGTGGCACGTGCAAGC | -0.08
TCCGGCACGTGTTAGT | 0.04
TTGGACACGTGGAAGT | 0.02
TATACCACGTGGTTGT | -0.2
TAGGACACGTGACTGG | 0.03
TATGTCACGTGACGCT | 0.2
AAAATCACGTGAGGTA | 0.44
TGTGTCACGTGTTGGG | 0.19
TGTTGCACGTGTCTGG | 0.06
GATGCCACGTGGCGGG | -0.01
AGGGCCACGTGGAGGC | -0.08

Sequence | relative binding free energy [kcal/mol]
GAATGCACGTGGAATG | 0.24
GAAGGCACGTGATGTG | 0.06
ACGGGCACGTGATTAT | 0.05
ATGTTCACGTGTTTAC | 0.05
TTTGCCACGTGCTGGT | -0.12
TTGCGCACGTGGTGAA | -0.27
AGAGGCACGTGTGCTT | -0.11
TGCCTCACGTGTTGAG | 0.33
TGGGCCACGTGTCGGT | -0.09
TGGCGCACGTGTGATG | -0.14
TACTGCACGTGTTTAT | -0.03
GACGGCACGTGGGGCT | -0.17
GTTTACACGTGTGGGA | 0.26
GGTATCACGTGTGCAG | -0.01
CTGTTCACGTGGTTCG | 0.16
AGTTTCACGTGCGGAT | 0.32
ATGGACACGTGTAGAG | 0
TCATTCACGTGTTAGT | 0.29
CGTAGCACGTGGGCTG | -0.27
GGCGTCACGTGAGGCG | 0.29
AGTGACACGTGTGATT | 0.05
GAGGTCACGTGATAGT | 0.26
GGGGGCACGTGGGTTA | -0.24
GGTCGCACGTGACGGT | 0.09
TAGTGCACGTGAAATG | 0.24
TGTTGCACGTGTTAGG | 0.08

Sequence | relative binding free energy [kcal/mol]
CTGTTCACGTGCAGGT | 0.3
GCGTGCACGTGATGGT | 0.13
TTTACCACGTGGAAGG | -0.01
GGTTGCACGTGTTGGA | 0.09
TTCTTCACGTGAGGGC | 0.38
GGTTGCACGTGGACTC | 0.29
GATTGCACGTGAACGG | 0.28
TAGAACACGTGCTTGT | 0.02
AGGGTCACGTGTTCTT | 0.24
CAATTCACGTGAGTTG | 0.36
TTTGGCACGTGGATGG | 0
TGATACACGTGGGGCG | -0.05
TCTGCCACGTGTGGTG | -0.06
ACTGGCACGTGGTAGT | -0.15
CGTGGCACGTGCTGGG | -0.19
GGGCTCACGTGGCAGG | 0.15
GTGGGCACGTGATTGT | 0.01
CGGGCCACGTGGTGTT | -0.23
GGGCTCACGTGGGGCC | 0.22
GTAATCACGTGTATGT | 0.16
AAGTACACGTGATGAT | 0.19
AAATGCACGTGGTGGA | -0.14
AAAGGCACGTGTTCGG | 0.04
TTAAACACGTGGATGA | 0.11
TTATTCACGTGGCGAG | 0.11
AAGTTCACGTGTTTAG | 0.37

Sequence | relative binding free energy [kcal/mol]
TTGTACACGTGTTTTT | 0.22
GGGGTCACGTGCATTA | 0.21
GGGTGCACGTGTATAA | 0.04
AGGGGCACGTGCCTAG | -0.25
GGCGGCACGTGTCTGG | -0.09
TGCAGCACGTGTAAGT | -0.06
GAGGCCACGTGGGCGT | -0.18
CTTTGCACGTGGGGCA | -0.09
GGGAGCACGTGCGTTT | -0.12
TTGTGCACGTGGTGTG | -0.1
GAAGTCACGTGGGTGG | 0.05
ATTTGCACGTGGGGAA | 0
GGTGGCACGTGGAATG | -0.01
GTTGGCACGTGGCGGC | -0.1
TGCAGCACGTGGCGTG | -0.08
GTGCGCACGTGACTGG | 0.06
GATGCCACGTGGGGGT | -0.19
AAGTGCACGTGTGGAC | 0.06
GATGGCACGTGTGTTT | -0.07
TCGTGCACGTGGGTTA | -0.25
CGAACCACGTGGGGGG | -0.14
CTAAGCACGTGTGTTG | -0.11
TGGGGCACGTGAGGTT | 0.16
GTTCGCACGTGGCAGG | -0.07
CGTTACACGTGGGTGT | 0.04
AGGTGCACGTGGGTGG | -0.17

Sequence | relative binding free energy [kcal/mol]
CTGTGCACGTGATAAT | 0.06
GAGACCACGTGTGGTG | 0.09
TGAATCACGTGAGTAT | 0.31
TTTGGCACGTGGTCGG | -0.11
GGGGGCACGTGGGACC | -0.09
AATGGCACGTGTTTTA | 0.11
ATGTGCACGTGCTGGG | -0.09
GGAGACACGTGGAGCG | -0.02
TGGAACACGTGTTTAA | -0.01
CTTATCACGTGAGGAG | 0.27
CATGTCACGTGTGGGA | 0.12
TGCGTCACGTGGTTTG | 0.14
CTTGTCACGTGCGAGT | 0.11
CATTGCACGTGGTTCG | 0
ATTTTCACGTGAGAGA | 0.45
TGAAACACGTGTTGGT | 0.06
TAATACACGTGTATAT | -0.05
GTAATCACGTGTATGG | 0.08
AGTTACACGTGGTGGA | 0.09
TGTTTCACGTGATAAG | 0.15
ATTGCCACGTGTGTTA | 0.01
GCTGGCACGTGTCGTG | -0.15
TGTATCACGTGGCATG | 0.04
TGGCGCACGTGTATTA | -0.07
CATTGCACGTGGTGGG | -0.1
ATTCACACGTGGGGGT | -0.13

Sequence | relative binding free energy [kcal/mol]
AGTGGCACGTGGGACG | -0.12
GCGTTCACGTGACGGG | 0.39
TAGCTCACGTGTGTAT | 0.18
GTCTGCACGTGTTAAT | 0.07
TGGTACACGTGGGTCC | -0.02
TTATGCACGTGAAAGT | 0.26
TAAGTCACGTGATGGC | 0.2
TGTTTCACGTGGATGC | 0.29
AATAACACGTGTGGTT | -0.05
GTTATCACGTGGGCTG | 0.17
TGGTCCACGTGGGGCG | -0.13
AAATCCACGTGGGGTG | -0.2
TTAAGCACGTGGCGGT | -0.14
CTTATCACGTGGTTAA | 0.18
ATAAGCACGTGTGAGT | 0.02
CAGGTCACGTGTTGGG | 0.09
GGGTACACGTGTTGTC | 0.21
CAAGTCACGTGGGCGT | -0.01
TAGTTCACGTGTCTGA | 0.37
GGTATCACGTGAGGGA | 0.33
GGTAACACGTGTTGGC | 0.02
GAGTACACGTGTAGGT | 0.21
AATTTCACGTGATCGT | 0.17
ATATACACGTGGAGGG | 0.09
TATGCCACGTGGGGGT | -0.2
TTATTCACGTGGAGGG | 0.26

Sequence | relative binding free energy [kcal/mol]
ATAGCCACGTGGGTTA | -0.26
GTGGGCACGTGTATCA | -0.04
AGAAGCACGTGGTGGG | -0.12
GGGTTCACGTGCGTCG | 0.28
GGTCGCACGTGGTCAG | -0.17
TGTGGCACGTGGTACC | -0.19
CTTTGCACGTGGTTGC | -0.08
CTTGCCACGTGGAGGT | -0.07
TGTGACACGTGGTCTG | -0.04
ACAGGCACGTGTGGAG | -0.08
TTGAACACGTGCTGGG | -0.06
CGTTTCACGTGTAATA | 0.27
TCTTACACGTGGTGGT | 0.08
TAAGTCACGTGTGCTT | -0.03
TTTGGCACGTGTTTAC | -0.14
CTAGTCACGTGCGGTT | 0.21
CTTTTCACGTGTTTCG | 0.24
TTTTACACGTGACGGG | 0.29
GATAGCACGTGGAGGT | -0.02
CAGGGCACGTGGGGGT | -0.19
TATGCCACGTGTGGTA | -0.05
TTCTTCACGTGGGTTC | 0.21
TAGTGCACGTGAGGGC | 0.31
TGTGTCACGTGCGCGG | -0.11
TTGATCACGTGATAAA | 0.16
ATTGGCACGTGCATTA | -0.24

Sequence | relative binding free energy [kcal/mol]
ATACTCACGTGGTGGG | 0.17
AAGCTCACGTGGTGCG | 0.2
TGAATCACGTGGCATG | 0.08
ATACTCACGTGTTTAT | 0.19
GATTGCACGTGAAGAG | 0.39
TGGGGCACGTGGTGAA | -0.15
GTATTCACGTGTTTCG | 0.24
TAGGTCACGTGAAAAG | 0.14
AAATGCACGTGGCGGC | 0.08
GATTGCACGTGGACTG | 0.13
TGATGCACGTGTGGAG | 0.09
AGCTGCACGTGGTGAG | -0.08
ATCGGCACGTGGCAGG | -0.23
CGTTACACGTGATTTG | 0.19
CTGGTCACGTGGTTCG | 0.19
TGCTCCACGTGTGGTT | 0.19
AAGGTCACGTGGCGAG | 0
TGGTGCACGTGGAGAA | -0.1
CTCGGCACGTGGGGGA | -0.16
TTGGCCACGTGTTTTA | 0.08
GTGGCCACGTGAAGTT | 0.31
AGTGGCACGTGCATGG | -0.21
